# Hit rate of the full screen: of about 340,000 compounds, about 6,900 (2%) were called active. No stated cut-off is given here; in the data, active means inhibition above about 30%; inactive means below that, where a call was filed. This is a selection; strong and weak results do not stand in their true shares. Entries without a call were filed so in the source.
# Molecular target: D(2) dopamine receptor (Homo sapiens) (UniProt P14416)
# Test: HTS Assay for Allosteric Antagonists of the Human D2 Dopamine Receptor: Primary Screen for Antagonists; further: 0% is about no effect
# Settings: HEK293 TREx D2 cells, calcium flux, dopamine EC80; at 10 µM; stronger effect = higher value
# How it was run: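 In this primary screen, negative modulation is detected by tracking calcium flux after an EC80 dopamine challenge in inducible HEK293 T-REx D2 cells preexposed to test compound for 180 s.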
# UniProt P14416, sequence (P14416 whole entry, looked up): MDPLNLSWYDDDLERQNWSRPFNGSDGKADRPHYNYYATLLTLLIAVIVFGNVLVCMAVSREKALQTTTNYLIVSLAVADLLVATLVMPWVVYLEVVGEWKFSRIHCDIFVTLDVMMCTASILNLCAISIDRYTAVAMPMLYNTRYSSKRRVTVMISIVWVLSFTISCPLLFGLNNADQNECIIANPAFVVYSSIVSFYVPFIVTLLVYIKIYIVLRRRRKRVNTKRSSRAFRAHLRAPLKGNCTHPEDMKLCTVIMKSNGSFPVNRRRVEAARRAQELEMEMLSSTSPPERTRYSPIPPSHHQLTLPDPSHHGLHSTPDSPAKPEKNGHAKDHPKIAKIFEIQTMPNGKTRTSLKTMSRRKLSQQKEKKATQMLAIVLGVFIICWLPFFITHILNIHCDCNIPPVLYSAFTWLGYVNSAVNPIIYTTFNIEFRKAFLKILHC
row,Structure (SMILES),inhibition
1,CN1C(=O)c2ccccc2Sc2ccc(NC(=O)N3CCN(c4ccccc4)CC3)cc21,27.3%
2,COc1ccc(-n2nnnc2C2CCN(S(=O)(=O)c3ccc(C)cc3)CC2)cc1,-23.3%
3,COc1cc2c(cc1OC)C(COc1ccc3c(C)cc(=O)oc3c1)N(C(=O)c1ccccc1C)CC2 (configuration not stated),16.7%
4,CC(NCc1ccc2c(c1)OCO2)C(=O)N1CCc2ccccc21 (configuration not stated),active: 43.6%
5,COc1ccc(OC)c(-n2nnc(-c3nc(-c4cc(OC)c(OC)c(OC)c4)no3)c2C)c1,11.3%
6,COc1ccc(-c2nc3ccccc3n3c(-c4ccccc4)c4c(=O)n(C)c(=O)n(C)c4c23)cc1OC,9.67%
7,O=c1oc2c3c(ccc2c2ccccc12)OCN(Cc1ccc(Cl)cc1)C3,-0.537%
8,OC1(c2ccc3c(c2)OCO3)CCN(Cc2ccc(F)cc2)CC1,active: 73%
9,Cc1ccc(CNC(=O)c2ccc(Cn3c(=O)c4ccccc4n(CC(=O)Nc4c(C)cc(C)cc4C)c3=O)cc2)cc1,6.8%
10,O=C(NCC(c1cccs1)S(=O)(=O)c1cccs1)c1cccc(F)c1 (configuration not stated),8.09%
11,Cc1ccccc1CSc1ccc(-c2cccs2)nn1,10.8%
12,Cc1cccc(NC(=O)c2cc(S(=O)(=O)N3CCCCCC3)cn2C)c1C,-0.335%
13,Cc1ccc(NC(=O)Cn2cc(C(=O)C3CC3)c3ccccc32)cc1C,4.69%
14,Cc1ccc(Cc2cn3cc(-c4ccc(F)cc4)nc3s2)cc1,-7.78%
15,COc1ccc(-c2c(C)c3ccc(O)c(CN4CCCC4)c3oc2=O)cc1OC,-9.41%
16,COc1cccc(-c2cn3ncsc3n2)c1,-2.09%
17,Cc1ccc(OCCSc2nc3ccc(NC(=O)c4ccc(F)cc4)cc3s2)cc1,-17.1%
18,CCCCNC(=S)N(C)/N=C/c1ccc(F)cc1,active: 90.6%
19,CCOC(=O)C(CC)Sc1c(CC)cnc2c1c(=O)n(C)c(=O)n2C (configuration not stated),0.402%
20,Cc1cccc(C(C)C)c1NC(=O)C(NS(=O)(=O)c1cccc2nsnc12)c1ccccc1 (configuration not stated),3.02%
21,CCc1ccc(CNC(=O)C2CCCN(S(=O)(=O)c3ccc4c(ccn4C)c3)C2)cc1 (configuration not stated),-22.7%
22,COc1ccc(CNC(=O)CCc2nc(-c3ccc(OC)cc3)no2)cc1,-12.3%
23,CC(=O)N1c2ccc(S(=O)(=O)N3CCC(C(=O)Nc4cccc(Cl)c4)CC3)cc2CC1C (configuration not stated),active: 41.2%
24,Cc1cc(C)c2c(n1)sc1c(=O)n(-c3ccccc3C(F)(F)F)nnc12,28.3%
25,CCSc1nc2c([nH]c3ccccc32)c(=O)n1-c1ccc(F)cc1,27.6%

row,Structure (SMILES),inhibition
1,CCC(=O)N1CCc2cc(CNS(=O)(=O)c3cccs3)ccc21,-18.9%
2,CCCCOc1ccc(CNC(=O)c2ccc3c(c2)N(C)C(=O)C2CCCCN32)cc1 (configuration not stated),-2.52%
3,CCOc1ccc(Nc2oc(/C=C/c3cccc(OC)c3)nc2C#N)cc1,-8.5%
4,O=C(NC1CCN(Cc2ccccc2)CC1)c1cc(Br)c(Br)[nH]1,active: 78.3%
5,Clc1cccc(-c2cc3nc4c(c(N5CCN(c6cnccn6)CC5)n3n2)CCCC4)c1,active: 41.2%
6,CCCCCn1c(CCNC(=O)c2cccc(C)c2)nc2ccccc21,2.58%
7,Cc1c(Cl)cccc1Nc1nc2ccc(C(=O)c3ccccc3)cc2n2cnnc12,5.41%
8,Cc1ccc(CNC(=O)CN2C(=O)C3(SCC(=O)N3c3ccc(F)cc3)c3ccccc32)cc1 (configuration not stated),0.698%
9,Cc1ccc(NC(=O)Cn2c(-c3cncs3)nc3ccccc32)c(Br)c1,14.5%
10,COc1ccc2c(c1)Cc1sc(NC(=O)c3cccc(Br)c3)nc1-2,-24.4%
11,CC(=O)N1CCc2c(sc3c2c(=O)n(Cc2ccccc2)c(=O)n3Cc2cc(C)ccc2C)C1,-19.6%
12,CC1CN(C(=O)N2CCC(C(=O)NCCCc3ccccc3)CC2)c2ccccc2O1 (configuration not stated),21.7%
13,Cc1ccccc1/C=C(\C#N)c1nc(-c2ccc(Cl)cc2)cs1,-9.38%
14,Cc1csc2nc(-c3ccc(NS(=O)(=O)c4cc(F)ccc4F)cc3)cn12,-16.2%
15,CC1(C)Cc2cccc(OCC(O)CN3CCN(c4ccccn4)CC3)c2O1 (configuration not stated),active: 60.3%
16,COc1ccc(CCN2C(=O)CN(C3CCCCCC3)C(=O)C2c2ccc(OC(C)C)c(OC)c2)cc1OC (configuration not stated),8.9%
17,CN(C(=O)c1ccc2c(Cl)c3c(nc2c1)CCC3)c1ccccc1F,-15.7%
18,COc1ccccc1C(=O)Nc1ccc(C(=O)OCc2cc(=O)n3nc(C)sc3n2)cc1,4.15%
19,CCN(CC)C(=O)Cn1c(=O)n(-c2ccccc2)c(=O)c2c3c(sc21)CCC3,-11.1%
20,NS(=O)(=O)c1ccc(NC(=O)CSc2ccc3ccccc3n2)cc1,-24.5%
21,CC1CCC(C(=O)NC(C(=O)OCC(=O)c2ccc(Br)cc2)C(C)C)CC1 (configuration not stated),6.49%
22,Cc1ccc(CNS(=O)(=O)c2cc3c(cc2Cl)NC(=O)CO3)o1,3.77%
23,Cc1ccc(/C=C/c2onc(C)c2S(=O)(=O)N2CCC(C(=O)Nc3ccc(Br)c(C)c3)CC2)cc1,-12.1%
24,CCC(CC)C(=O)Nc1cc(-c2ccccc2F)nn1-c1ccccc1,-0.759%
25,CNS(=O)(=O)c1cn(CC(=O)Nc2ccc(OC)cc2OC)cc1S(=O)(=O)NC,-7.47%

row,Structure (SMILES),inhibition
1,Cc1cccc(CN2C(=O)c3ccccc3Sc3ccc(C(=O)NC4CCCCC4)cc32)c1,-4.79%
2,Cn1c(SCC(=O)NCCNC(=O)CSc2nnc(C(F)(F)F)n2C)nnc1C(F)(F)F,active: 32.6%
3,Cc1cccc(CNC(=O)C2CCC(CNS(=O)(=O)c3ccc4c(c3)CCCC(=O)N4)CC2)c1 (configuration not stated),25%
4,Cc1cc(=O)oc2c(C)c(OCC(=O)Nc3cccnc3)ccc12,active: 35.8%
5,COc1ccc(OC(=O)c2nc(SCc3ccccc3F)ncc2Cl)cc1,-1.34%
6,Cc1ccc(NC(=O)Cn2c(=O)n(Cc3ccco3)c(=O)c3oc4ccccc4c32)cc1C,4.56%
7,CN(C)c1ccc(NC(=O)CCN2CCN(c3ccccn3)CC2)cc1,active: 84.6%
8,CCC(C)NC(=O)c1nn(-c2ccc(C)cc2)nc1CO (configuration not stated),12.2%
9,CCn1c(SCC(=O)Nc2ccccc2C(=O)OC)nc2ccsc2c1=O,7.88%
10,Cc1ccc(-c2cc(C(=O)Oc3ccc(C#N)cc3)no2)cc1,-3.53%
11,CCC(=O)NNc1ncnc2c1cnn2-c1ccc(C)c(Cl)c1,19.7%
12,Cc1nc2ccccc2c(=O)n1-c1ccc(NC(=O)c2ccccc2[N+](=O)[O-])cc1,19.9%
13,CCN(Cc1ccccc1)C(=O)Cn1c(=O)n(-c2ccccc2)c(=O)c2c1c1cc(C)ccc1n2C,-5.21%
14,CCc1ccc(CSc2nc(-c3ccccc3F)nc3c2Cc2c(CO)cnc(C)c2O3)cc1,-0.443%
15,CC(CCc1ccccc1)NC(=O)Cn1ncc2c3ccccc3n(Cc3ccccc3F)c2c1=O (configuration not stated),6.6%
16,CCN(C(=O)C1CCN(S(=O)(=O)c2cc(Br)cc3c2N(C(C)=O)CC3)CC1)c1cccc(C)c1,-0.0327%
17,O=C(CSc1nccn1-c1cccc(Cl)c1)Nc1ccc2c(c1)OCO2,-12.9%
18,O=C1CC(N2CCN(c3cccc(C(F)(F)F)c3)CC2)C(=O)N1c1ccccc1F (configuration not stated),active: 32.7%
19,CCC(=O)C1=C(c2ccc(F)cc2)N(C(=O)CC)n2c(nnc2-c2ccc(OC)cc2)S1,-3.37%
20,COc1ccc(-c2cnc(C)o2)cc1S(=O)(=O)Nc1ccc(NC(C)=O)cc1,-11%
21,Cn1c(=O)oc2cc(S(=O)(=O)CCC(=O)N3CCN(c4ccccc4F)CC3)ccc21,13.3%
22,O=C(CCn1c(=O)c2cccn2c2cccnc21)N1CCN(c2ccccc2)CC1,-3.25%
23,CCn1cc(C(=O)Nc2cccc(Cl)c2)c2cc(OC)c(OC)cc2c1=O,-11.8%
24,Cc1cc(C)cc(NC(=O)CSc2nc3c(c(=O)[nH]2)CN(Cc2ccc(F)cc2)CC3)c1,1.72%
25,COc1ccccc1N1CCN(C(=O)Cn2c(=O)n3nc(-c4cccc(F)c4)nc3c3ccccc32)CC1,-7.16%

row,Structure (SMILES),inhibition
1,Brc1ccc(-c2noc(COc3ccc4c(c3)CCC4)n2)o1,active: 42.7%
2,Cc1ccccc1COC(=O)c1nn(-c2ccccc2)nc1N,-4.64%
3,CCCCN(CC)CCNC(=O)C1CCN(S(=O)(=O)c2cccc3nsnc23)CC1,9.11%
4,CCNC(=O)c1ccc(NC(=O)N2CCCCc3ccccc32)cc1,11.5%
5,O=C(COc1ccc([N+](=O)[O-])cc1)Nc1cccc(C(=O)Nc2ccccc2C(=O)O)c1,active: 52%
6,COc1ccc(Cc2nn3c(Cn4nnc5ccccc54)nnc3s2)cc1,active: 39%
7,CC(=O)c1ccc(N2CCN(S(=O)(=O)c3ccc(-c4coc(C)n4)cc3)CC2)cc1,10%
8,COc1ccc(-c2noc(CCC(=O)NCCCN3CCN(c4ccccc4F)CC3)n2)cc1,active: 84%
9,CCOc1cc(-c2ccc(OC(=O)c3ccccc3Cl)c(OC)c2)cc(=O)c2c(C)oc(C)c12,-8.68%
10,Cc1cccc(C)c1NC(=O)c1ccc2c(c1)nnn2C1CCCC1,-6.54%
11,CCOC(=O)c1cc2occc2n1Cc1c(F)cccc1Cl,active: 31.2%
12,COc1ccc(-c2nn3c(=O)cc(CN4CCN(C(=O)/C=C/c5ccccc5)CC4)nc3s2)cc1,8.64%
13,COc1ccc(C2CC(=O)Nc3c2c(=O)[nH]c2nc4ccccc4n32)cc1 (configuration not stated),19.7%
14,O=C(/C=C/c1ccccc1Cl)N1CCC(c2nc3ccccc3o2)CC1,-14.1%
15,CCOc1ccc(NC(=O)c2sc3nc4n(c(=O)c3c2C)CCC4)cc1,-5.14%
16,COC(=O)N1CCCc2cc(S(=O)(=O)NCc3ccccc3)ccc21,-14.6%
17,COc1cc(NC(=O)CN2CCN(c3ccc(F)cc3)CC2)cc(OC)c1,-28.3%
18,Cc1nn(CC(=O)NC2CCC(C)CC2)c(=O)c2c1sc1ccccc12 (configuration not stated),6.08%
19,CCn1cc2nc(SCC(=O)Nc3cc(OC)cc(OC)c3)n(Cc3ccc(Cl)cc3)c(=O)c2n1,13.2%
20,Cc1cc(C)c(Nc2ncnc3c2cnn3C)c(C)c1,-4.94%
21,Cc1ccc(NC(=O)CCc2c(C)nc3c(-c4ccc(F)cc4)c(C)nn3c2C)cc1F,17.7%
22,Cc1ccc2oc(-c3ccc(NC(=O)CCC(=O)O)cc3)nc2c1,21.8%

# From PubChem BioAssay AID485344 (National Center for Advancing Translational Sciences (NCATS), 2010)
